In PMC12040169 (PLOS Biology, 2025):
This is one part of the list.

Each compound was assayed on T1, C. trachomatis L2/434/Bu expressing GFP (CTL2-GFP). Details: total inclusion area; 28.5 h, 10 µM; inhibitor.
T1 construct: L2/434/Bu GFP intracellular growth in HeLa cells
Parameters: species or system HeLa; C. trachomatis total inclusion area by high-content imaging, normalised to DMSO
Outline: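 After bulk GFP and resorufin fluorescence reads, cells were fixed, stained with Hoechst and imaged by high-content microscopy. Inclusion area and number (GFP) stood in for chlamydial growth, nuclei count (Hoechst) for host cell viability. MICs were derived as for the bulk readout.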

| SMILES | % of control remaining |
| --- | --- |
| Cc1nc(C)c(C(=O)N2CCN(Cc3ccccc3)CC2)s1 [CBK200177] | 84.5333 |
| CCOc1cc(CNCCO)c(Cl)cc1OC [CBK269309C] | 131.124 |
| CC(C)c1cc(C(=O)NC(C)(C)CN2CCCCC2C)n(C)n1 (stereo not drawn) [CBK282644] | 111.078 |
| Nn1c(SCc2cc(=O)[nH]c3ccccc23)nnc1C(O)c1ccccc1 (stereo not drawn) [CBK268405] | 79.6655 |
| CN(C)c1cccc(-c2cncc(Nc3ccc(Cl)cc3)n2)c1 [CBK065738] | 67.465 |
| CCC(C)(C)C(=O)Nc1ccc(Cl)nc1 [CBK091334] | 87.4424 |
| Cn1c(=O)n(C)c2cc(NC(=O)CN(c3ccccc3)S(C)(=O)=O)ccc21 [CBK270094] | 74.2288 |
| Cc1nc2cc(NC(=O)Cc3c(C)nc4ccccc4c3C)ccc2o1 [CBK297083] | 98.1257 |
| COc1ccc(C2CC(=O)C(=CNCCN3CCN(C(=O)c4ccccc4)CC3)C(=O)C2)cc1 (stereo not drawn) [CBK264762] | 102.31 |
| CCNS(=O)(=O)c1ccc2c(c1)N(Cc1nc(C)c(C)o1)CC2 [CBK305189] | 17.5954 |
| Cc1cccc(CCN2CCC3(CC2)NCCc2c3[nH]c3ccc(Br)cc23)c1 [CBK039280] | 58.6022 |
| Cc1c(C(C)NCC(O)c2ccncc2)cnn1-c1ccc(C#N)cc1 (stereo not drawn) [CBK305403] | 84.0182 |
| O=C(CCN1C(=O)c2ccc([N+](=O)[O-])cc2C1=O)Nc1ccccc1-c1ccccc1 [CBK265134] | 74.8945 |
| COc1ccc(Oc2nccnc2N2CCN(Cc3ccc(Cl)c(Cl)c3)CC2)cc1OC [CBK083038T] | 69.8212 |
| Cc1ccccc1NC(=O)Cn1cnc2c(cnn2-c2ccccc2)c1=O [CBK287530] | 80.4508 |
| COc1ccc(-c2cnn(-c3cncnc3)n2)cc1 [CBK112763] | 82.4459 |
| CCOc1ccccc1NC(=O)NCCSCc1ccco1 [CBK057501] | 93.5997 |
| CCC(O)CNS(=O)(=O)c1ccc(C(C)C)cc1 (stereo not drawn) [CBK043543] | 78.4609 |
| Fc1ccc([C@@H]2CN(Cc3cccnc3)C[C@H]2c2cc[nH]n2)cc1 [CBK283054] | 90.6369 |
| O=C(c1cnoc1-c1ccc([N+](=O)[O-])cc1)N1CCCC1 [CBK153846] | 81.5801 |
| COc1ccc(-c2nc(NCc3ccccc3)n(C(=O)c3ccc([N+](=O)[O-])cc3)n2)cc1 [CBK268265] | 113.794 |
| O=C(Nc1ccc2ncccc2c1)c1cnc(-c2cccc(C(F)(F)F)c2)c(-c2cccnc2)c1 [CBK037591] | 112.513 |
| CC(C)c1ccc2c(c1)C(N1CCN(C)CC1)Cc1cccnc1S2 (stereo not drawn) [CBK026244G] | 64.2604 |
| c1ccc([C@@H]2CN(Cc3ccncc3)C[C@H]2c2cc[nH]n2)cc1 [CBK285161] | 85.7203 |
| Nc1ncc(-c2ccco2)nc1-c1ccc(C=O)cc1 [CBK064095] | 124.229 |
| COc1ccccc1C(=O)N1CCC(Cc2cccc(-c3cccs3)c2)(C(N)=O)CC1 [CBK285742] | 98.4942 |

| SMILES | % of control remaining |
| --- | --- |
| CN1CCN(c2ccc(-c3cncc(NC4CCOCC4)n3)cn2)CC1 [CBK037229] | 117.694 |
| CCN(Cc1ccc(C#N)cc1F)C(=O)NC(C)c1cnn(C)c1C (stereo not drawn) [CBK305643] | 75.8903 |
| O=S(=O)(c1ccc(C(F)(F)F)cc1)c1ccc2nccc(N3CCNCC3)c2c1 [CBK200016C] | 90.9012 |
| CNC(=O)c1cccc(NC(=O)c2cc(-c3ccc(O)cc3)cnc2N(C)C)c1 [CBK106397] | 97.2155 |
| O=C(N/N=C/c1cc([N+](=O)[O-])ccc1Cl)c1ccc(O)c(O)c1 [CBK261599] | 78.108 |
| Cc1ccc(NC(=O)c2cnc3ccccc3n2)c(C)n1 [CBK200218] | 86.1317 |
| O=C(Nc1nnc(-c2ccco2)o1)c1cccc(C(F)(F)F)c1 [CBK287422] | 103.626 |
| CNC(=O)C1(Cc2ccc(-c3ccccc3)cc2)CCN(C(=O)CCc2ccccc2)CC1 [CBK285765] | 99.7657 |
| C=CCOc1c(CNc2cccc(C(=O)O)c2)cccc1OC [CBK074432] | 77.7004 |
| O=C1CCC[C@]2(CN(C(=O)C3CC3)C[C@H]2c2ccc(F)c(F)c2)N1 [CBK283364] | 77.048 |
| CCc1nn(CC(=O)NC2CC2)c(=O)c2cc3sccc3n12 [CBK284029] | 70.9275 |
| COc1ccc(NC(=O)c2cn(C)nc2CC2CCN(CCc3ccccc3)CC2)cc1 [CBK285559] | 86.2369 |
| CC(C)N1CCN(Cc2c(C(F)(F)F)[nH]c3ncccc23)CC1 [CBK285354] | 101.829 |
| CCN(Cc1ccncc1)C(=O)NCCOc1ccccc1 [CBK155148] | 118.146 |
| CCCNC(=O)c1nn2c(c1Cl)NC(c1cccs1)CC2C(F)(F)F (stereo not drawn) [CBK307177] | 86.6143 |
| O=C(CC1(C(F)(F)F)NCCN1)c1ccco1 [CBK022373] | 99.8267 |
| CN(C)c1ccc(-c2nccnc2NS(=O)(=O)c2ccc3ccccc3c2)cc1 [CBK050794] | 100.17 |
| CN(Cc1ccccc1N1CCOCC1)C(=O)c1ccc2ncsc2c1 [CBK296692] | 111.63 |
| Cn1cc(-c2nccnc2OCCN2CCCC2=O)cn1 [CBK107068] | 101.168 |
| Cc1ccc(N2C(=O)c3ccc(C(=O)c4ccc(C(=O)O)cc4)cc3C2=O)cc1 [CBK287164] | 99.3048 |
| O=C(c1ccc(-n2ccnc2)c(-n2cccc2)c1)N1CCCCCC1 [CBK284813] | 112.636 |
| c1ccc(COc2ccc(-c3cc(Nc4ccc5[nH]ccc5c4)ncn3)cc2)cc1 [CBK090857] | 76.4861 |
| Cc1ccc(S(=O)(=O)NCCSc2ccc(Cl)cc2)cc1[N+](=O)[O-] [CBK264126] | 73.4818 |
| Cc1c(S(=O)(=O)Nc2cc(C(F)(F)F)ccc2N2CCOCC2)cnn1-c1ccccc1 [CBK062551] | 93.0454 |
| c1ccc(Cn2c(CN3CCCCC3)nc3ccccc32)cc1 [CBK269237] | 71.4315 |
| COc1ccc(Cl)cc1NC(=O)C1CN(S(=O)(=O)c2ccccc2)CCN1S(=O)(=O)c1ccccc1 (stereo not drawn) [CBK264000] | 103.667 |

| SMILES | % of control remaining |
| --- | --- |
| COc1ccc(Cl)cc1N1CCN(Cc2ccc(OC(F)(F)F)cc2)CC1 [CBK126405] | 88.8991 |
| Cn1ncc2c1CCCC2NC(=O)N(CCO)Cc1ccccc1 (stereo not drawn) [CBK306293] | 60.7574 |
| CCOc1cc(C(=O)O)ccc1OCCOc1cccc(C)c1 [CBK299781] | 85.3242 |
| Cc1cc(CC(=O)Nc2ccc3[nH]ccc3c2)on1 [CBK159690] | 94.3033 |
| Nc1nc(CSc2nnc(-c3ccccc3O)n2Cc2ccccc2)cs1 [CBK267394] | 111.243 |
| CC(C)C[C@H](NC(=O)OC(C)(C)C)C(=O)NC[C@H]1CC[C@H](C(=O)O)CC1 [CBK286750] | 110.808 |
| Cc1c(NC(=O)C2CN(S(=O)(=O)c3ccccc3)CCN2S(=O)(=O)c2ccccc2)c(=O)n(-c2ccccc2)n1C (stereo not drawn) [CBK264138] | 118.281 |
| NCCCNc1ncc(C(=O)NCc2ccccc2)c(NCC2CCCCC2)n1 [CBK215386] | 38.7516 |
| CSc1nc(N/N=C/c2ccc(Cl)cc2)c2c3c(sc2n1)CN(C)CC3 [CBK262588] | 100.288 |
| O=C(Nc1cc(-c2nc3ncccc3o2)ccc1Cl)c1ccco1 [CBK269730] | 104.498 |
| CCc1ccc(CNC(=O)Cn2nnc(-c3ccc(C(C)N4CCC(C)CC4)cc3)n2)cc1 (stereo not drawn) [CBK164199T] | 77.8693 |
| Cc1c(C(=O)O)sc2nc(SC/C=C/c3ccccc3)nc(N)c12 [CBK300523] | 90.373 |
| COc1ccc(CN2CCCN(c3nccc(OCc4cc(C)on4)n3)CC2)cc1 [CBK083911] | 57.8146 |
| O=C(NCc1ccc(Cl)cc1)c1cn(-c2ccccc2)c2ccc(CN3CCOCC3)cc2c1=O [CBK018481] | 56.982 |
| CC(NS(=O)(=O)c1ccc(OCC(=O)N2CCc3ccccc3C2)c(Cl)c1)c1ccccc1 (stereo not drawn) [CBK269117] | 110.99 |
| O=C(/C=C/c1ccccc1Cl)NCCc1ccccc1 [CBK261794] | 105.234 |
| CCOc1ccc(C(=O)N2CC(C(N)=O)CCC2C)cn1 (stereo not drawn) [CBK305770] | 125.419 |
| CC1CCCN(C(=O)CN2C3CCC2CC(O)(c2ccco2)C3)C1 (stereo not drawn) [CBK284095] | 99.1077 |
| COc1nccc(N2CCN(C(=O)C3CC3)CC(O)C2)c1C#N (stereo not drawn) [CBK306613] | 38.4595 |
| CC(=O)N1CCc2c([nH]c3ccccc23)C12CCCN(CCC#N)C2 (stereo not drawn) [CBK039665] | 109.73 |
| Cn1ccnc1C(NC(=O)N1CCCC1)c1ccc(F)c(F)c1 (stereo not drawn) [CBK283782] | 86.8051 |
| Cc1ccc(-c2nnc(-c3cccc(NC(=O)CSCc4ccc(Cl)cc4)c3)o2)cc1 [CBK266789] | 113.713 |
| COc1cc(C(=O)O)cc2c1NC(c1ccc(C(=O)O)cc1)C1CC=CC21 (stereo not drawn) [CBK287018] | 80.3934 |
| COc1ccc(C(=O)N2CC[C@H]3NC(=O)N(c4ccc(F)cc4)C(=O)[C@H]32)cc1 [CBK289325] | 127.901 |
| O=C(Cn1ccc(=O)[nH]c1=O)NCc1cccnc1OCC(F)(F)F [CBK304565] | 69.3111 |
| Clc1cc(N2CCCC2)ncn1 [CBK083597] | 83.4774 |
